Target: MtbDsbA (Rv2969c) (Mycobacterium tuberculosis, UniProt O33272)
Experiment: ITC of VKOR-derived peptides binding to MtbDsbA
Parameters: species or system Mycobacterium tuberculosis H37Rv
Details: 19 x 2 µl injections of 2-4 mM peptide into 100 µM MtbDsbA, 25 mM HEPES pH 7.4, 100 mM NaCl, 298 K, single-site fit, mean and SD of curve fits from two ITC runs, n.b. = no binding detected

VPSLNV (Ac-VPSLNV-NH2)
K d,app (apparent dissociation constant): n.b.

YVPSANV (Ac-YVPSANV-NH2)
K d,app (apparent dissociation constant): n.b.

From PMC3792642 (Acta Crystallographica Section D: Biological Crystallography, 2013)
